Reference: PubChem BioAssay AID720709 (National Center for Advancing Translational Sciences (NCATS), 2013)
In all, about 360,000 compounds went through this assay and about 520 (0.14%) were called active. Inconclusive results, whose numbers are uncertain, are shown with a selection of clear calls. Calls come from the whole dose curve; as a rule, active = well fitted inhibition curve with a large enough effect; inconclusive = small, poorly fitted or top-dose-only effect; inactive = no such curve, though single readings can be large or run the other way. Where the call is inconclusive, the potency comes from a doubtful curve fit.

Target: Rap guanine nucleotide exchange factor 3 (Homo sapiens) (UniProt O95398)
Test: qHTS for Antagonist of cAMP-regulated guanine nucleotide exchange factor 3 (EPAC1): primary screen; note: nearly all actives have a fitted effect of over 50% in size;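 for activity change, negative = inhibition: plate controls were vehicle for no effect and positive control for full effect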
Details: EPAC1 GEF assay, Rap1b-BODIPY-GDP exchange fluorescence; activity change, negative = inhibition: at 115 µM (top of the series)
Potency is the fitted concentration of half-maximal effect; tags give direction and shape of the fitted curve.

Sequence of UniProt O95398 (O95398 whole entry, looked up): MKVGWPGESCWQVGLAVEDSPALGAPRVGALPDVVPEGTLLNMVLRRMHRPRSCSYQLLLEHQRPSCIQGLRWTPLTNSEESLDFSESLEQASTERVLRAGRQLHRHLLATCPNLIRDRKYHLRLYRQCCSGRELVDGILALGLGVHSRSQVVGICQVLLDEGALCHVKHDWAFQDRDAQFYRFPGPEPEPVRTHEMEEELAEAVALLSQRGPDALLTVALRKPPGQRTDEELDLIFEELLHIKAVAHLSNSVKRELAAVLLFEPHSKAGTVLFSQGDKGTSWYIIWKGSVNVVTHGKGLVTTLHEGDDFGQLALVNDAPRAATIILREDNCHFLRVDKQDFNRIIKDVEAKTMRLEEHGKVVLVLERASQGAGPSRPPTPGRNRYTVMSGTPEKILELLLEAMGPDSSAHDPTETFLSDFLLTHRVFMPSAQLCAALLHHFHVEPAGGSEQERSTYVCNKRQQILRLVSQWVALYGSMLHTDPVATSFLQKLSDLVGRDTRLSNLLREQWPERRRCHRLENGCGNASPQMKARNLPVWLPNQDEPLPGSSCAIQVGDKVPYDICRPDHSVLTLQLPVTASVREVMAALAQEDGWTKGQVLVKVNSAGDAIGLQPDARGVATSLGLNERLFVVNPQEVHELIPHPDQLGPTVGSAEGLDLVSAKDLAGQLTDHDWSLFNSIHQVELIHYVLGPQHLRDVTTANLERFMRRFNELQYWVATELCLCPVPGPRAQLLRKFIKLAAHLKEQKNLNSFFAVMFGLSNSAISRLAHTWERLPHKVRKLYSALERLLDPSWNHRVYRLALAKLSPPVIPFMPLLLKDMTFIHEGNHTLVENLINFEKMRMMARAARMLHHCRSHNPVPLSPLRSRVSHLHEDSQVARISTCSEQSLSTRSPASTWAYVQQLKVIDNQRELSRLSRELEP

Potency, inconclusive:
CN(c1ccccc1)c1ccc(/C=C/[N+](=O)[O-])cc1 89.1 µM [inhibitor, partial curve]
Cc1ccc(NC(=O)Cc2ccc3c(c2)OCCO3)cc1S(=O)(=O)N1CCCCC1 79.4 µM [inhibitor, partial curve]
COc1cc(/C=N/NC(=O)c2cccnc2)ccc1OCC(=O)Nc1ccc(C)cc1 89.1 µM [inhibitor, partial curve]
O=C(CCNC(=O)N1CC(=O)Nc2ccccc21)Nc1ccc(Cl)cc1 89.1 µM [inhibitor, single point]
COc1ccc(NC(=O)COCC(=O)Nc2ccc(C)cc2)cc1 22.4 µM [inhibitor, partial curve]
CC(=O)Oc1ccc2c(c1)Oc1cc(OC(C)=O)ccc1C21OC(=O)c2ccccc21 2.82 µM [inhibitor, partial curve, poor fit]
CCCCOc1ccc(CSCCN=C(N)N)cc1 10 µM [inhibitor, full curve, poor fit]
O=C1/C(=C\c2cc(Br)cc(Br)c2O)SC(=S)N1Cc1ccccc1 44.7 µM [inhibitor, partial curve]
Cc1ccc2c(C)c(C(=O)N3CCN(Cc4ccc5c(c4)OCO5)CC3)oc2c1C 44.7 µM [inhibitor, single point]
C/C(=N\NC(=O)c1cccc(S(=O)(=O)Nc2ccccc2Cl)c1)c1ccc(-n2ccnc2)cc1 89.1 µM [inhibitor, partial curve]
CCc1cccc(CC)c1NC(=S)NCCc1c(C)[nH]c2ccc(C)cc12 39.8 µM [inhibitor, single point]
Cc1cc(C)c2nc(N3C(=O)C(O)=C(C(=O)c4ccco4)C3c3cccc(O)c3)sc2c1 (centres undefined) 56.2 µM [inhibitor, partial curve]
COc1cc(NC2c3ccccc3C(=O)N2c2ccc(C)cn2)cc(OC)c1OC (centres undefined) 35.5 µM [inhibitor, single point]
O=C(CNC(c1ccccc1)c1ccccc1)Nc1ccc(F)cc1 2.82 µM [inhibitor, full curve, poor fit]
O=[N+]([O-])c1cc(Br)c(O)c(/C=N/Nc2nnnn2-c2cccc3ccccc23)c1 100 µM [inhibitor, single point]
CCC(C)CCCCCCCCCCC(=O)O (centres undefined) 50.1 µM [inhibitor, partial curve]
O=C1NC(=O)/C(=C\c2cn(CC(=O)N3CCOCC3)c3ccccc23)S1 70.8 µM [inhibitor, single point]
COc1ccccc1-n1c(SCC(=O)N2CCOCC2)nc2cccnc21 39.8 µM [inhibitor, single point]
Oc1ccc(Cn2ccnc2)c2cccnc12 25.1 µM [inhibitor, full curve, poor fit]
CCc1nc2c(OCC(=O)c3ccc(Cl)cc3Cl)cccn2c1N(C=O)Cc1ccccc1 39.8 µM [inhibitor, partial curve]
O=C(Cc1nc2ccccc2[nH]1)c1ccc(Br)cc1 50.1 µM [inhibitor, partial curve, poor fit]
O=C(NNC(=O)c1ccccc1O)c1cc2ccccc2o1 56.2 µM [inhibitor, single point]
CCc1cccc(CC)c1NC(=S)NCCc1c(C)[nH]c2ccccc12 39.8 µM [inhibitor, single point]
C/C(=N\NC(=O)c1nnn(-c2nonc2N)c1CN1CCCCC1)c1ccccc1O 20 µM [inhibitor, partial curve]
COc1ccc2[nH]c3c(c2c1)CCN1C(=O)C(CC(=O)NC/C=C(\C)CCC=C(C)C)C[C@H](C(=O)N(C(C)C)C(C)C)[C@@]31C (some centres undefined) 44.7 µM [inhibitor, partial curve]
CC1(C)Cc2c(sc3nc(SCC(=O)O)[nH]c(=O)c23)CO1 44.7 µM [inhibitor, partial curve, poor fit]
Cc1cc(SCC(=O)N/N=C/c2ccc(O)c(O)c2)nc2ccccc12 50.1 µM [inhibitor, partial curve]
COc1cc(/C=N/Nc2ccc(Cl)c(C(=O)O)c2)ccc1OC(=O)c1ccco1 79.4 µM [inhibitor, single point]
COc1cc(C2Nc3ccccc3NC3=C2C(=O)CC(C)(C)C3)cc(OC)c1OC (centres undefined) 79.4 µM [inhibitor, single point]

Potency, inactive:
COc1ccc(C=NNC(=S)NC23CC4CC(CC(C4)C2)C3)cc1OC
Nc1nc(Sc2ccc([N+](=O)[O-])c3nonc23)c2[nH]cnc2n1
CCOC(=O)c1ccc(NC(=O)N(CC)CC)cc1
COc1ccc(OC)c2c1C(=O)c1ccccc1C2=O
Cc1cc(C)n(CCC(=O)Nc2ccc(-c3ccno3)cc2)n1
COc1ccc2nc(NNC(=O)c3cc(=O)c4ccccc4o3)sc2c1
COc1ccc(OC)c(C(=O)CSc2nnc(C3CC3)n2C2CC2)c1
Cc1ccc(/C=N/NC(=O)Nc2ccccc2)o1
Cc1cc(/C=C2/C(=N)N3C(=NC2=O)SN=C3S(C)(=O)=O)c(C)n1-c1ccccc1F
CCOc1ccc(NC(=O)CN2C(=O)CSC2=O)cc1
CCOc1ccc(NC(=O)Nc2ccon2)cc1
Cc1ccc(-c2cc3c(nn2)-c2ccccc2C3=O)cc1
c1cncc(CNc2ncnc3ccc(-c4ccoc4)cc23)c1

Activity change, negative = inhibition, inconclusive:
COc1ccc(C(=O)Nc2cccnc2Sc2ccc(Cl)cc2)cc1 -35.3% [inhibitor]
COc1cc(NC(=O)CN(c2ccc(C)cc2)S(=O)(=O)c2c(C)n[nH]c2C)cc(OC)c1 0% [inhibitor]
